“And” between values parts separate entries of the source, which are not always exact repeats. Equal values may be shown once. Where a name gives a salt, the structure may show the parent alone. ± gives the standard deviation of the averaged measurements. In all, about 1,000 compounds went through this assay and about 15 (2%) showed an effect of 50% or more. The list shows a part of the results.
The compounds below were run on HFF (assay: uninfected host cell viability relative to vehicle control; higher = less host cell toxicity). Conditions: 5 µM; 72 h; oxygen 21 %.
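Further: confluent HFF monolayers, run in parallel with the Toxoplasma growth screen as a host toxicity counterscreen.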

| SMILES | uninfected host cell viability |
| --- | --- |
| COc1ccc2cc([C@H](C)C(=O)O)ccc2c1 [Naproxen sodium] | 97.1 ± 3.6% |
| COC(=O)C[C@](O)(CCCC(C)(C)O)C(=O)O[C@@H]1C(OC)=C[C@]23CCCN2CCc2cc4c(cc2[C@H]13)OCO4 [Homoharringtonine] | 28.6 ± 2.8% |
| NCCCCCc1c[nH]cn1 [Impentamine dihydrobromide] | 89.6 ± 3% |
| CC(=O)O[C@H]1C(=O)[C@@]2(C)[C@H]([C@H](OC(=O)c3ccccc3)[C@]3(O)C[C@H](OC(=O)[C@H](O)[C@@H](NC(=O)c4ccccc4)c4ccccc4)C(C)=C1C3(C)C)[C@]1(OC(C)=O)CO[C@@H]1C[C@@H]2O [Taxol] | 78.5 ± 1.7% |
| CCCCC[C@H](O)/C=C/[C@H]1[C@H](O)CC(=O)[C@@H]1C/C=C\CCCC(=O)O [Prostaglandin E2] | 95.2 ± 2.4% |
| CCCCCCCCCCCCCCCCn1cc[n+](Cc2ccccc2)c1C | 32 ± 6.6% |
| N[C@@H](Cn1ccc(=O)n(Cc2ccccc2C(=O)O)c1=O)C(=O)O | 84.8% and 85.7% |
| CCCn1c(=O)c2[nH]c(C3CCCC3)nc2n(CCC)c1=O | 96.9 ± 2.9% |
| Cc1cc(C(=O)O)sc1C(N)C(=O)O (stereo not drawn) | 86.2 ± 2.2% |
| CN1C(=O)C(Cc2c[nH]c3ccccc23)NC1=S (stereo not drawn) [Necrostatin-1] | 83.5 ± 2.1% |
| Cn1cc(/C=C2\C(=O)Nc3cccnc32)c2ccccc21 | 67.8 ± 1.2% |
| CC(C)(C)c1ccc(S(=O)(=O)/C=C/C#N)cc1 | 94.5 ± 1.1% |
| CN(C)C(=O)C(=O)c1cn(C)c2cc(Cl)c(C(=O)N3CCC(Cc4ccc(F)cc4)CC3)cc12 | 88.4 ± 2.3% |
| O=C(O)c1cc(=O)c2c(Cl)cc(Cl)cc2[nH]1 [5,7-Dichlorokynurenic acid] | 92.9 ± 1.2% |
| Clc1ccccc1CNCC1CCC(CNCc2ccccc2Cl)CC1 (stereo not drawn) | 83.3 ± 1.1% |
| NC(=O)c1ccc(-c2nc(-c3ccccn3)c(-c3ccc4c(c3)OCO4)[nH]2)cc1 | 92.28 ± 0.26% |
| O=C(NCCCCN1CCN(c2cccc(Cl)c2Cl)CC1)c1ccc2c(c1)Cc1ccccc1-2 | 88.9 ± 4% |
| CN/C(=N\CCSCc1nc[nH]c1C)NC#N [Cimetidine] | 85.6 ± 1.4% |
| N#C/C(=C\c1ccc(O)c(O)c1)C(=O)NCCCc1ccccc1 | 79.3 ± 3.5% |
| CC1CCN=C(N)S1 (stereo not drawn) [AMT hydrochloride] | 97.7 ± 5.2% |
| CCOC(=O)c1cnc2c(cnn2CC)c1NN=C(C)C [Etazolate hydrochloride] | 87.5 ± 3.7% |
| COc1ccc2[nH]c(-c3ccccc3)c(CCNC(C)=O)c2c1 [2-Phenylmelatonin] | 95.2 ± 4.7% |

| SMILES | uninfected host cell viability |
| --- | --- |
| O=C(NCCCN1CCCCCC1)C(c1ccccc1)C1CCCCC1 (stereo not drawn) | 88.8 ± 4.6% |
| CN1CCC(Nc2ncc3ncnc(Nc4ccc(F)c(Cl)c4)c3n2)CC1 [BIBX 1382 dihydrochloride] | 80.7 ± 2.1% |
| NC(=O)OCC(COC(N)=O)c1ccccc1 [Felbamate] | 96.2 ± 0.84% |
| O=C(O)Cc1cccc(OCCCN(Cc2cccc(C(F)(F)F)c2Cl)CC(c2ccccc2)c2ccccc2)c1 [GW 3965 hydrochloride] | 99.5 ± 3.2% |
| O=c1cc(-c2ccccc2)oc2cc(O)c(O)c(O)c12 [Baicalein] | 69.4 ± 2.4% |
| O=C(O)CCC/C=C\CC1C(O)CC(O)C1/C=C/C(O)COc1cccc(Cl)c1 (racemic) [(±)-Cloprostenol sodium salt] | 90.9 ± 3.5% |
| CC[C@H](C)C(=O)O[C@H]1C[C@@H](C)C=C2C=C[C@H](C)[C@H](CC[C@@H]3C[C@@H](O)CC(=O)O3)[C@H]21 [Lovastatin] | 82.4 ± 4.8% |
| CC1(c2ccccc2)OC(C(=O)O)=CC1=O (stereo not drawn) [Acifran] | 89.6 ± 5.2% |
| COC(=O)C(Cc1ccc(OCCn2c(=O)sc3cc(C(=O)c4ccccc4)ccc32)cc1)C(=O)OC | 89.383 ± 0.088% |
| CC(=O)NCC(=O)N[C@H](CCC(=O)O)C(=O)O [N-Acetylglycyl-D-glutamic acid] | 89.2 ± 4.2% |
| CCCCCCCC/C=C\CCCCCCCC(=O)NCCO [Oleylethanolamide] | 92.81 ± 0.16% |
| CCCCCCC(=O)OC1CC(C)(C)NC(C)(C)C1 [TMPH hydrochloride] | 87.15 ± 0.47% |
| Oc1cc2c(cc1O)CN(C(=S)NCCc1ccc(Cl)cc1)CCC2 [Capsazepine] | 101 ± 2.4% |
| CC1(C)C[C@@H]1C(=O)N/C(=C\CCCCSC[C@H](N)C(=O)O)C(=O)O [Cilastatin sodium] | 91.2 ± 4.5% |
| CNCCCC12CCC(c3ccccc31)c1ccccc12 [Maprotiline hydrochloride] | 79.5 ± 3% |
| O=C1Cc2c([nH]c3ccc(Br)cc23)-c2ccccc2N1 [Kenpaullone] | 83.7 ± 1.5% |
| COc1ccc2c(c1)c(CC(=O)N1CCOCC1)c(C)n2C(=O)c1ccc(Cl)cc1 | 88.1 ± 3.8% |
| CC(C)(C)n1nc(-c2cccc3ccccc23)c2c(N)ncnc21 [1-Naphthyl PP1] | 83.62 ± 0.48% |
| C=CCNC(=O)c1cc([N+](=O)[O-])cc2c(=O)[nH]c(Nc3ccc(Cl)c(Cl)c3)nc12 | 87.2 ± 3.2% |
| CN(C)CCCSC(=N)N [Dimaprit dihydrochloride] | 95.8 ± 1.1% |
| CC(C)c1ccc2c(c1)CC[C@H]1[C@](C)(CN)CCC[C@]21C [Lylamine hydrochloride] | 87.8 ± 1.4% |

From the supplement of paper PMC4894684
